Measurements from PubChem BioAssay AID504832 (National Center for Advancing Translational Sciences (NCATS), 2011).
The campaign covered roughly 310,000 compounds. About 18,000 (5.8%) were called active. Inconclusive means that the source gave no clear call. Such entries were picked first, then a sample of the others. Calls follow the shape of the dose curve; as a rule, active = well fitted inhibition curve with a large enough effect; inconclusive = small, poorly fitted or top-dose-only effect, or another doubt; inactive = no such curve, though single readings can be large or run the other way. Potencies of inconclusive entries are left out as doubtful fits.

Test: Primary qHTS for delayed death inhibitors of the malarial parasite plastid, 48 hour incubation
Conditions: P. falciparum luciferase growth in erythrocytes; series mostly up to 28.7 µM; activity change, negative = inhibition: at the top concentration
Procedure, shortened: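 Parasite viability was followed by luminescence of a genomically integrated firefly luciferase. Cultures held 0.1% parasitemia at 2% hematocrit (final), incubated under 5% CO2 at 37 C.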
% is scaled to controls: 0 for no effect and ±100 for the full control effect; potency is read from the fitted curve at half-maximal effect; tags tell the direction and shape of the fitted curve.

SMILES	Potency	activity change, negative = inhibition
O=C(Nc1ccc2c(c1)OCO2)C1CCN(S(=O)(=O)c2ccc3c(c2)OCCO3)CC1	inconclusive [inhibitor, partial curve, poor fit]	
CC(C(=O)NCc1ccc2c(c1)OCO2)N1c2cccc3cccc(c23)S1(=O)=O (configuration not stated)	inconclusive [inhibitor, partial curve, poor fit]	
CCN(C(=O)C1CCN(c2nc(-c3ccc(OC)cc3)no2)CC1)c1ccc(OC)cc1	active: 9.28 µM	
CCOC(=O)c1ccc(-c2csc(NC(=O)CN3CCC(C)CC3)n2)cc1	inconclusive [inhibitor, single point]	
COC(=O)c1cccc(C(=O)N2CCC(CO)(Cc3ccccc3Cl)CC2)c1	inconclusive [inhibitor, single point]	
COC(=O)Nc1ccc(OCc2ccccc2)cc1		inactive: 151%
NNC(=O)c1oc2nc(-c3ccco3)cc(-c3ccco3)c2c1N	inconclusive [inhibitor, single point]	
Cc1ccc(/C=C2\SC(=S)N(CCCC(=O)Nc3cccnc3)C2=O)cc1	inconclusive [inhibitor, partial curve]	
Cc1cccc(NC(=S)NC2CC3CCCC(C2)N3Cc2cccs2)c1 (configuration not stated)	inconclusive [inhibitor, full curve, poor fit]	
CC(NC(=O)c1ccc(NC(=O)CC2SC(N3CCCC3)=NC2=O)cc1)c1ccc(F)cc1 (configuration not stated)	inconclusive [inhibitor, partial curve, poor fit]	
COc1ccccc1Nc1nc(-c2sc(NC(=O)C(C)(C)C)nc2C)cs1	inconclusive [inhibitor, full curve]	
CCOc1cc(/C=N/NC(=O)CSc2nnc(C)s2)ccc1OCc1ccccc1Cl	inconclusive [inhibitor, partial curve, poor fit]	
CCn1cc(C(=O)NCC2CCCO2)c(=O)c2cc(S(=O)(=O)N(C)C)ccc21 (configuration not stated)		inactive: -3.52%
Cc1ccc2nc(C)cc(N/N=C/c3cccc(O)c3)c2c1	inconclusive [inhibitor, partial curve, poor fit]	
COc1ccc(/C(N)=N/OC(=O)Cc2ccccc2OC)cc1		inactive: 8.12%
CC(=O)C1(O)Cc2c(O)c3c(c(O)c2C(OC2CC(N)C(O)C(C)O2)C1)C(=O)c1c(O)cccc1C3=O (configuration not stated)	active: 1.51 µM	
CC(C)(C)Sc1ccc([N+](=O)[O-])cc1C(=O)Nc1ccncc1	inconclusive [inhibitor, full curve]	
Cc1cccnc1NC(=O)c1ccc(S(=O)(=O)N2CC(C)OC(C)C2)cc1 (configuration not stated)		inactive: -21.4%
S=C(NCC1CC1)N/N=C/c1ccccc1Cl	inconclusive [inhibitor, single point]	
CCN1CCN(c2ccc(S(=O)(=O)N3CCCCC3)cc2NC(=O)c2cccc(F)c2)CC1	inconclusive [inhibitor, single point]	
CN(C)S(=O)(=O)c1ccc(N2CCCC2)c(C(=O)Nc2ccccc2N2CCOCC2)c1	inconclusive [inhibitor, single point]	

SMILES	Potency	activity change, negative = inhibition
CC(=O)Nc1ccc(NC(=O)c2cc(-c3cc(C)cc(C)c3O)n[nH]2)cc1	active: 11.7 µM	
Oc1ccc(N=Nc2ccccc2C(F)(F)F)c2cccnc12	active: 1.47 µM	
O=S(=O)(c1ccc(Br)cc1)N1CCN(c2ccccc2)CC1	active: 10.4 µM	
COc1ccc([N+](=O)[O-])cc1NC(=O)c1ccc(CN(c2ccccc2)S(C)(=O)=O)cc1	inconclusive [inhibitor, single point]	
CCOC(=O)N1CCN(C(=O)CCCCCn2c(=S)[nH]c3cc4c(cc3c2=O)OCO4)CC1	inconclusive [inhibitor, partial curve]	
CCCCc1cn([C@@H](CCCCNC(=O)OC(C)(C)C)C(=O)N2CCN(C(=O)OC(C)(C)C)CC2)nn1	active: 14.7 µM	
CC(NCCCOc1cccc2ccccc12)c1ccccc1 (configuration not stated)	inconclusive [inhibitor, single point]	
S=C(N/N=C1\CCc2ccccc21)NC1CCCCC1	inconclusive [inhibitor, single point]	
COc1ccc(-c2nc(C(F)(F)F)c(OC)o2)cc1OC		inactive: 9.3%
Cc1ccc(S(=O)(=O)NCC(=O)N(CC(=O)NCC2CCCO2)CC2CCCO2)cc1 (configuration not stated)		inactive: 3.09%
CC(=O)c1ccc(-c2ccc(C(=O)N(C)Cc3nc4ccccc4c(=O)[nH]3)o2)cc1	inconclusive [inhibitor, single point]	
CC(C)(C)n1nnnc1C(c1ccc(Cl)cc1)N1CCCc2ccccc21 (configuration not stated)	active: 2.33 µM	
COc1cc(/C=N/NC(=S)NC2CC3C=CC2C3)cc(OC)c1OC (configuration not stated)	active: 5.22 µM	
Cc1cc(SCC(=O)N/N=C/c2ccc(O)cc2O)c(C)cc1Br	inconclusive [inhibitor, single point]	
CC(=O)NC(Cc1ccc(F)c(F)c1)C(=O)NC1CCN(c2nnnn2-c2ccccc2)CC1 (configuration not stated)	inconclusive [inhibitor, partial curve, poor fit]	
C/C(=N\NC(=O)c1cccc(Cl)c1)c1cccc(NC(=O)c2ccco2)c1	inconclusive [inhibitor, single point]	
Cc1cc(C(=O)Nc2ccc(S(=O)(=O)N3CCOCC3)cc2)c(C)o1		inactive: -1.35%
O=C(CSCC(=O)N1CCCCC1)OCC(=O)c1c[nH]c2ccccc12	inconclusive [inhibitor, single point]	
O=C(CC1C(=O)NCCN1Cc1ccccc1C(F)(F)F)NCCn1cccn1 (configuration not stated)		inactive: 22.2%
Cc1ccccc1NC(=O)NC1(C(=O)N2CCCC2)CCCCC1	inconclusive [inhibitor, partial curve, poor fit]	
COCCN1C(=O)N[C@@H](c2ccc(Br)cc2)C(C(C)=O)=C1C	inconclusive [inhibitor, partial curve, poor fit]	
